According to PubChem BioAssay AID493208 (National Center for Advancing Translational Sciences (NCATS), 2011):
The campaign covered roughly 44,000 compounds. About 340 (0.77%) were called active. Not shown: some 5% with an inconclusive outcome. Calls follow the shape of the dose curve; as a rule, active = well fitted inhibition curve with a large enough effect; inconclusive = small, poorly fitted or top-dose-only effect; inactive = flat fitted curve, though single readings scatter. Some of the results follow.

Assay: Acumen qHTS Assay for Inhibitors of the mTORC1 Signaling Pathway in MEF (Tsc2-/-, p53-/-) Cells: Sytravon;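 also: plate controls were DMSO for no effect and rapamycin for full effect; nearly all actives have a fitted effect of over 50% in size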
Details: phospho-rpS6 immunofluorescence/PI, 24 h; series mostly up to 38.3 µM; activity change, negative = inhibition: at the top concentration
In short: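 Readout is phospho-S6 Alexa 488 signal normalized to PI per well, reported as % active cells with thresholds set from rapamycin (7.5 nM) and DMSO controls. Cells: Tsc2-/-, p53-/- MEFs, 24 hrs compound at 37 C; PI cell number serves as viability.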

Structure (SMILES) | activity change, negative = inhibition
Cc1c(NC(=O)Nc2ccc(Br)cc2F)sc2nc3n(c(=O)c12)CCC(C)CC3 (configuration not stated) | inactive: -0.463%
CCOC(=O)c1c(S(=O)(=O)NCC(=O)N2CCN(c3ccccc3)CC2)c(C)n(C)c1C | inactive: -5.16%
Fc1ccc(C(NCCc2ccc(Cl)cc2)c2nnc(-c3ccccc3)o2)c(Cl)c1 (configuration not stated) | inactive: -3.45%
COc1ccccc1CNC(=O)CCn1c(=O)c2ccccc2n(CC(=O)Nc2ccc(C)cc2Cl)c1=O | inactive: -3.85%
CCc1cccc(C)c1NC(=O)c1cc(S(=O)(=O)NCc2ccccc2Cl)ccc1F | inactive: -0.201%
CC(=O)NCC(c1ccc2c(c1)OCO2)N1CCN(c2ccccc2)CC1 (configuration not stated) | inactive: -0.87%
CCCn1c2ccccc2c2cnn(CC(=O)N(C)c3ccccc3CC)c(=O)c21 | inactive: -1.48%
Cn1c(=O)c(=O)n(C)c2cc(NC(=O)c3cccc(F)c3)c(Cl)cc21 | inactive: 0.643%
CCCSCCCNC(=O)C1CCCN(c2nn3cc(-c4ccc(OC)cc4)nc3s2)C1 (configuration not stated) | inactive: -1.96%
CCOc1ccccc1CNC(=O)CCCn1ncn2c(cc3occc32)c1=O | inactive: 0.4%
CCOc1ccc(C(=O)c2cn(CC(=O)Nc3ccc(F)cc3)c3cc4c(cc3c2=O)OCO4)cc1 | inactive: -18.2%
COc1ccc(N(CC(=O)NCc2ccccc2Cl)S(=O)(=O)c2c(C)nn(C)c2C)cc1 | inactive: -20.8%
COc1ccc(CCNC(=O)Cn2c(=O)nc(-c3ccccc3)c3ccccc32)cc1OC | inactive: 8.83%
Cc1ccc2cccc(NC(=O)COc3cc(C)c(Cl)c(C)c3)c2n1 | inactive: -8.97%
CN(C)CCCN(C(=O)c1ccc(Br)s1)c1nc2ccc(F)cc2s1 | inactive: -3.85%
CCCCN(CC)CCNC(=O)CN1C(=O)COc2ccc(S(=O)(=O)N3CCCC3)cc21 | inactive: 0.91%
Cc1ccc(CCNC(=O)CCn2nc(-c3ccccc3)ccc2=O)cc1 | inactive: 5.36%
Cc1ccccc1NC(=O)N1CCc2c(sc3c2CCCC3)C1c1ccccc1 (configuration not stated) | inactive: 0%
COc1ccc(NC(=O)c2ccc3nc(CCc4ccccc4)oc3c2)c(OC)c1 | inactive: 2.91%
CCOc1ccc(C(=O)Nc2c(C(=O)c3ccc(OC)cc3)oc3ccccc23)cc1 | inactive: -2.49%
O=C(NCCc1ccccc1)c1ccc(Cn2c(SCc3cccc(F)c3)nc3cccnc32)cc1 | inactive: -22.8%
CCn1c(NCc2ccc(OC)cc2)nc2ccccc21 | inactive: -10.2%
CCS(=O)(=O)c1ncc(N(Cc2ccccc2)Cc2ccco2)c(C(=O)Nc2ccc(C)c(C)c2)n1 | inactive: -0.379%
COCCNC(=O)CCc1c(C)nc2c(-c3ccc(F)cc3)c(C)nn2c1C | inactive: 0.705%

Structure (SMILES) | activity change, negative = inhibition
COc1cc(C(CC(=O)Nc2ccc(F)cc2F)N2Cc3ccccc3C2=O)cc(OC)c1OC (configuration not stated) | inactive: 0.0076%
COc1ccc(CCNC(=O)CCCCn2c(=O)c3ccccc3n(Cc3ccccc3C)c2=O)cc1OC | inactive: -6.1%
CCCCCn1cc2c(c1-c1ccc(Br)cc1)c(=O)n(C)c(=O)n2C | inactive: -1.7%
CCC(=O)Nc1ccc(CC)cc1-c1nc2ccccc2n(CC(=O)Nc2cccc(Cl)c2)c1=O | inactive: -2.02%
COc1cccc(NC(=O)Cn2nnc(-c3nc(-c4ccccc4)no3)c2N)c1 | inactive: -27.1%
O=C(Cn1c(=O)oc2cc(Cl)ccc21)Nc1cccc(C(F)(F)F)c1 | inactive: -17.7%
Cc1nc2ncnn2c(C)c1CCC(=O)N1CCN(c2ccccc2)CC1 | inactive: -3.92%
COc1ccc(OC)c(NC(=O)c2cc3cc(C)ccc3n2C)c1 | inactive: -4.13%
CCc1ccccc1NC(=O)Cn1c(=O)n(-c2ccc(C)cc2)c(=O)c2c1c1cc(C)ccc1n2C | inactive: -13.8%
Cc1ccccc1CSc1nc2cc(C(=O)NC3CCCC3)ccc2c(=O)n1Cc1ccccc1 | inactive: 1.87%
CCN(Cc1ccccc1)C(=O)Cn1cc(S(=O)(=O)Cc2cccc(Cl)c2)c2ccccc21 | inactive: -9.84%
O=C(CCCn1c(=O)c2cccn2c2ccc(F)cc21)NCc1ccc(Cl)cc1 | inactive: -2.24%
COC(=O)CC1Oc2ccccc2-n2cc(-c3ccccc3)nc21 (configuration not stated) | inactive: 5.29%
Cc1ccc(-n2nc(CO)c(C(=O)NC(C)CCCc3ccccc3)n2)cc1C (configuration not stated) | inactive: -0.204%
CC1CCN(C(=O)CSc2c(C(C)C)cnc3c2c(=O)n(C)c(=O)n3C)CC1 | inactive: 0%
CCOc1ccc(CNS(=O)(=O)c2ccc3[nH]c(=O)ccc3c2)cc1 | inactive: -4.27%
CCC(=O)Nc1ccc2nc(SCCOc3ccccc3)sc2c1 | inactive: -4.34%
CCCCOc1ccc(CNC(=O)c2ccc(NC(=O)N3CCCCc4ccccc43)cc2)cc1 | inactive: -9.59%
CC(=O)Nc1nonc1-c1nnc(SCC(=O)Nc2ccccc2)n1-c1ccccc1 | inactive: -1.83%
COC(=O)c1ccc(-n2c(CCC(=O)O)ccc2-c2ccc(C)cc2)cc1 | inactive: -1.89%
CCOC(=O)Cn1c(=O)n(CC2CCCO2)c2nc(-c3cccc(C)c3)nc(C(N)=O)c21 (configuration not stated) | inactive: -5.77%
Cc1ccc(NC(=O)CSc2ncn[nH]2)cc1C | inactive: -0.703%
CNS(=O)(=O)c1cn(CC(=O)Nc2cccc(OC)c2)cc1S(=O)(=O)NC | inactive: -5%
